The other results are listed elsewhere or left out.

For 14 molecules, binding signal results are on record in publication PMC12136788.

The chains are these.
T1: UNK ZnF1-3 (human, UniProt Q9C0B0 31-174)
T1 sequence: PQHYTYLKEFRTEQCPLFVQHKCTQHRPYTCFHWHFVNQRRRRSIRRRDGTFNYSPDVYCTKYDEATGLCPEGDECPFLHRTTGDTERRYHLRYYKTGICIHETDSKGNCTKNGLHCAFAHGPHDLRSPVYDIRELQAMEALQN

B1: 135896134_135898045_2707_3pUTR_ENSMUSG00000039959_ENSMUST00000060311|mouse|control|control (ssRNA)
RNA: GGGAGUUCUACAGUCCGACGAUCCGCGUGAACACACCAUCAGCUCCUCGAACUUCCCUUUGCCUUGGACCACAAGAUCAGCAGCAUCCACCAUGAUGGUAGCUCCCCAACCAACAGCUUUGGAGGCGGAUAUCAGCCCUUCCGCAACAGAGGAUUGAGCAUCA
B2: chr7:141438946:141438947:+_ENSG00000106028_ENST00000265304|hu_mus|hu_hu_hu_mus_True|18_38 (ssRNA)
RNA: GGGAGUUCUACAGUCCGACGAUCGACGAAAUACCUGUAACACAGGUCUUCGAAACAUGGCUUCUGUUUUUCUUACAACCUAAUCUUUAGGCUUUUCCUGACGAUCUGAAAGAAAAGGCCCAGCCACUAAAUCAAGAAACUACACAACAGAGGAUUGAGCAUCA
B3: chrX:71549762:71549763:+_ENSMUSG00000019087_ENSMUST00000019231|mus_mus|mus_mus_mus_hu_False|38_88 (ssRNA)
RNA: GGGAGUUCUACAGUCCGACGAUCAAACCCGUGUACUUCUUAUUGUUACAUCACCCCCACCAGAAAACGAUAACGACAGCCAAGCAGGACAGACAGUCAAGUAGUCUUUCCACACUCCCAAACUCAGGGAGCCCUAUAACCUUACAACAGAGGAUUGAGCAUCA
B4: chr17:4210377:4210378:-_ENSG00000132388_ENST00000396981|hu_mus|FALSE|FALSE (ssRNA)
RNA: GGGAGUUCUACAGUCCGACGAUCAAGUGUAUCUGGAGGACCAAUAAUAAGGACUUCCCAACGAUAGAGAUCAUUGUCGUCUAUUAAACCUGCUGAAAAGCCUUCCACUGGAUUUUUGUUGAGUUCUGCCAGCUGUCUUCGCAGCAACAGAGGAUUGAGCAUCA
B5: chr12:39756943:39756944:-_ENSG00000139116_ENST00000544797|hu_mus|hu_hu_hu_mus_False|38_78 (ssRNA)
RNA: GGGAGUUCUACAGUCCGACGAUCGGUUUGGCUGUUACCCCCAAGGGAAUCCUGCAAUAGUCUUGUUAGCUUAGAGUCUCUGUAAGGGACAUGGGUGGCCCUCUUGCUCUUGUCCCCCAAGGCGCUGAUUACAUUCCCAAGAGCCAACAGAGGAUUGAGCAUCA
B6: chr11:18422405:18422406:+_ENSG00000134333_ENST00000379412|hu_mus|FALSE|FALSE (ssRNA)
RNA: GGGAGUUCUACAGUCCGACGAUCCAGCUUGGAGUUCGCAGUUACACAGUAGUCUUUGCUGGAGACAAUUUUUGGUGUUUUAAGGAAGAGGCUGCCAUGCUGGAGAUCCAUCAUCUCGCCCUUGAGUUUGUCUUCCAUGACGUCCAACAGAGGAUUGAGCAUCA
B7: chr22:32879901:32879902:+_ENSG00000100225_ENST00000397426|hu_mus|hu_hu_hu_mus_False|38_38 (ssRNA)
RNA: GGGAGUUCUACAGUCCGACGAUCCUCUUCCAUACUCAUGGCAUCCUGAAUUGACUCAGCUUCAACAUUUUGACUAGGCCCUUCCAUACUGUCAUCAUUCCAAACACCAAAUGGGGUGGCCUGUCCUUGGGAUGAAUCAGUCCCCAACAGAGGAUUGAGCAUCA
B8: 97129297_97129417_136_5pUTR_ENSMUSG00000030619_ENSMUST00000107234|mouse|control|control (ssRNA)
RNA: GGGAGUUCUACAGUCCGACGAUCUCCCGCCGCCCUCUCGACACUUUGCACCGAGGCGUCGGAUCUGCUGGCUCAGAGGGCAGGGGUUUCCUACGUCCCCCUUCCCCACCAGCGCCUAGAGACGAGGCGGAACUCAAAGGGCUGCAACAGAGGAUUGAGCAUCA
B9: chr3:124456682:124456683:+_ENSG00000114491_ENST00000536109|hu_hu|FALSE|FALSE (ssRNA)
RNA: GGGAGUUCUACAGUCCGACGAUCAUUAUGAUUCGCUGCCACAAAGACAUUCUCCUGAAUAAACCUCUUCACUCUCCCAACUGUCUCAGCAUCAACUUUUUUCUGCUGCUCGAGAAUCUCCAGCAUUUUGGACAAUGUACACACCAACAGAGGAUUGAGCAUCA
B10: chr11:46405157:46405158:+_ENSG00000110492_ENST00000395566|hu_hu|hu_hu_hu_mus_False|48_78 (ssRNA)
RNA: GGGAGUUCUACAGUCCGACGAUCCCCUCCCCACUUUGGGCACUUGGUGUGGGCGUGAAGGCAGGGCCGUGAUUGACAGAGCUGACAAGCAGACAGAAGGCACUGGUGGGUUAUAUCUUGGGCCUGUGGGAGAGGAGGGCUCCGCAACAGAGGAUUGAGCAUCA
B11: chr2:65860617:65860618:+_ENSMUSG00000044647_ENSMUST00000122912|mus_hu|FALSE|FALSE (ssRNA)
RNA: GGGAGUUCUACAGUCCGACGAUCGAUCUGAUUUGGAGUUCCUGGAAUGUGGCUAUCUAUUUGGUAAUACAGAGUUGAAGAGUUGGCAUAAAAAGAAGCAUUCUUUGCAUGGCUUUCGUGAACGGCGGUGCCAUCAGAAUAACACAACAGAGGAUUGAGCAUCA
B12: chr13:21172813:21172814:+_ENSG00000032742_ENST00000351808|hu_mus|motif|central (ssRNA)
RNA: GGGAGUUCUACAGUCCGACGAUCAAUAUUUCCCAUAUUCACUUUCAGUCUUCCUGCAUUGCUAAACAUCUUGUUUUUCACGGUAACUUGGUAUGUGUUCAGUGCUUCUGCAUACAUUUCAUUAGCAGAAUACUGACUGGCCAACAACAGAGGAUUGAGCAUCA
B13: chr1:109605286:109605287:-_ENSG00000197780_ENST00000461096|hu_mus|hu_hu_hu_mus_True|98_108 (ssRNA)
RNA: GGGAGUUCUACAGUCCGACGAUCAAGAACAAUAACAUUCAGUGAUCACCUCUUUAAAUGCAAUUAUCCUUAUUAUAAGCUAAGCAGAAUAAUAAUUUAAUACCGUAAGUGAACUACACACAAAGCCUGAACCGCGAAAAUGGUCAACAGAGGAUUGAGCAUCA
B14: chr11:86935578:86935579:+_ENSMUSG00000020492_ENSMUST00000020794|mus_mus|FALSE|FALSE (ssRNA)
RNA: GGGAGUUCUACAGUCCGACGAUCCUCAUCUGAAAUGCAUCACGAUCCUCUCGGUCAAGGGAAAUGUCAGGCUUCCUCAUCAGCCCCGCCUCUAGACGUCUCGCCCAAUCUCUGCAGUUGGUCUUCUUUCCACCAGCCUUCCUCCAACAGAGGAUUGAGCAUCA

The test deals with T1, UNK ZnF1-3. Put plainly: nsRBNS (natural sequence RNA bind-n-seq); RBNS binding buffer (assumed for nsRBNS): 25 mM Tris pH 7.5, 150 mM KCl, 3 mM MgCl2, 0.01% Triton X-100, 500 ug/ml BSA, 20 U/ml SUPERase-In, 4 C; UNK is unkempt and MSI1 is Musashi-1; names of the RNAs are library labels; protein concentration not given here; high values mean tight binding.
As for B1, the binding signal was 1.26 enrichment R. B2 came in with a binding signal of 0.87 enrichment R.

As for B3, the binding signal worked out at 1.78 enrichment R. Next, B4: 0.784 enrichment R; B5: 0.85 enrichment R. The figure for B6 is 0.649 enrichment R. Next, B7: 0.946 enrichment R; B8: 0.369 enrichment R. Regarding B9, the binding signal worked out at 0.879 enrichment R.

B10: the binding signal was determined as 2.01 enrichment R.

Molecule B11 registered a binding signal of 1.15 enrichment R.

Molecule B12 had a binding signal of 0.432 enrichment R. In turn, B13 gave a binding signal of 1.22 enrichment R. The figure for B14 is 0.768 enrichment R.
